# Data reported in PubChem BioAssay AID2202238 (Ras Initiative Chemistry Research Team, Frederick National …, 2025).
# This is one part of the list. Further columns of the screen follow, without active or inactive calls.
# Biological target: GTPase KRas (Homo sapiens) (UniProt P01116)
# Experiment: Fragment capture on engineered cysteines, share of protein labelled (AID 2202238)
# Parameters: protein at 5 µM with 500 µM competing thiol for 1.5 h
# Conditions: KRAS G12D cysteine mutants, disulfide tethering, MALDI-TOF labeling, stronger effect = higher value, fragment at 500 µM
# [1] = measured here: G60C mutant labeling
# [2] = measured here: G75C mutant labeling
# [3] = measured here: H94C mutant labeling
# [4] = measured here: I36C mutant labeling
# [5] = measured here: L120C mutant labeling
# [6] = measured here: M67C mutant labeling
# [7] = measured here: M72C mutant labeling
# [8] = measured here: N26C mutant labeling
# [9] = measured here: N86C mutant labeling
# [10] = measured here: P121C mutant labeling
# [11] = measured here: S122C mutant labeling
# [12] = measured here: S136C mutant labeling
# UniProt P01116, sequence (P01116 whole entry, looked up, the tested form may be a part): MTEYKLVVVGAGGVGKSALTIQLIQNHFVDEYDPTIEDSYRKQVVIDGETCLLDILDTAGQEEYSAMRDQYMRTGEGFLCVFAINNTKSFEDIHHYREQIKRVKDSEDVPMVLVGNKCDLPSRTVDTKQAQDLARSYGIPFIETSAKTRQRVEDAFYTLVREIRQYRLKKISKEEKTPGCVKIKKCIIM
Compound,percent labeling [1] [%],percent labeling [2] [%],percent labeling [3] [%],percent labeling [4] [%],percent labeling [5] [%],percent labeling [6] [%],percent labeling [7] [%],percent labeling [8] [%],percent labeling [9] [%],percent labeling [10] [%],percent labeling [11] [%],percent labeling [12] [%]
CN1CCCC(c2cccc(C(=O)NCCS)c2)C1 (centres undefined),49.7,35,52.1,46.1,49.7,55.2,69.4,63.6,41.3,35.3,35.5,64.5
O=C(CCS)N1CCc2ccccc2C1c1nc2ccccc2[nH]1 (centres undefined),,24.2,19.1,23.6,19.7,35.1,22.2,,20.8,16.7,10.9,49.2
O=C(Cc1ccc(C2CCCCC2)cc1)NCCS,42,19.3,35.6,8.3,29.2,11.1,30.6,23.6,12,18.6,9.5,14.4
O=C(CCS)Nc1cccc(OCc2cccc(F)c2)c1,,17.2,32.5,20.2,14.4,24.7,36.4,,19.9,16.4,11.9,38.1
CC(C)(C)OC(=O)N1CC2(CCN2C(=O)CCS)C1,,6.1,18.8,17.4,16.7,17.8,12.5,,8.6,20.9,22.6,30.1
COc1ccc(S(C)(=O)=O)cc1C(=O)NCCS,35.8,23.9,39.3,30,49.4,40.1,43.1,45.4,36.3,35.8,39.3,63.5
O=C(CCS)NCC(O)c1cc(Cl)c2c(c1)OCCO2 (centres undefined),,15.3,36.8,43.2,32.3,44,44.2,,28.5,39.2,32.1,53.3
CC(=O)Nc1cc(NC(=O)CCS)ccc1F,,12.9,26.4,37.6,33,25,28.3,,20.4,29.6,32.8,51.3
CC(C)(C)C1CCC(O)(CNC(=O)CCS)CC1 (centres undefined),,13.5,26.2,24.9,32.4,21.1,25.1,,11.3,24.4,21.3,52.1
Cc1nn(C)c(-n2cncn2)c1C(=O)NCCS,22.7,8.3,30.3,22.6,32.6,27.7,11,31.9,18.9,29.7,29,44.1
Cc1cccn2cc(-c3cccc(NC(=O)CCS)c3)nc12,,9.6,17.2,22.3,17.7,19.1,38.7,,9.8,12.5,12.8,29.1
O=C(CCNC(=O)c1cccs1)NCCS,26.3,14,30.6,39.5,35.7,36.7,27,34.1,22.6,41.1,32.6,49.1
O=C(Cn1cnc2sccc2c1=O)NCCS,38.6,16.5,33.2,31.2,53.1,33,34.3,38.8,35.9,34.3,35.5,53.4
CCn1cnnc1-c1ccc(C(=O)NCCS)cc1,30.1,13.6,31.9,27.1,40.2,29.8,31.6,38.5,25.7,27.4,27,42.4
CN(Cc1ccccc1Oc1ccc(Cl)c(Cl)c1)C(=O)CCS,,18.3,35.5,22.4,21.3,22.7,50.2,,23,21.9,10.7,54.5
O=C(NCCS)C1CCCCN1C1CCCC1 (centres undefined),36.3,15,39.1,38.9,35.5,45.9,23.2,37.5,23.8,33.2,29,52.1
CC1(C)C=Cc2cccc(NC(=O)CCS)c2O1,,19.7,39.5,20.2,15.1,25.1,43.6,,20,23.6,21.5,39.6
O=C(CCS)NCC1CCN(c2ccncc2)CC1,,11.3,35.5,58.1,34.7,58.6,23.8,,22.4,33.7,27.7,58.8
CN(c1ccccc1)c1nc(C(=O)NCCS)cs1,25.8,13.9,20.1,10.6,18.5,12.6,43.6,29.1,11.7,14.9,11.8,26
O=C(CCS)NCCN1CCN(C(=O)C2CCC2)CC1,,7.6,31.9,40.1,30.5,39.5,15.6,,19,34.3,28,44.9
Cc1cc(NC(=O)CCS)nn1-c1cccc(Cl)c1,,15.7,21.2,17.2,21.8,21.9,40.6,,15.6,18,16.4,29.7
COC1(c2cccc(C(=O)NCCS)c2)COC1,31.8,15.6,37.3,25.9,38.1,32.2,32.6,45.3,25.1,30.1,31.7,50.6
CC(F)(F)c1cncc(CNC(=O)CCS)c1,,13.2,29.5,39.3,37,38.7,24,,18.8,34.9,34.7,47.7
Cc1c(C(=O)NCCS)cnn1CCC(C)C,40,20.6,27.2,19.9,37.6,27.9,48.5,46.3,21.4,26.3,31.8,48.8

Compound,percent labeling [1] [%],percent labeling [2] [%],percent labeling [3] [%],percent labeling [4] [%],percent labeling [5] [%],percent labeling [6] [%],percent labeling [7] [%],percent labeling [8] [%],percent labeling [9] [%],percent labeling [10] [%],percent labeling [11] [%],percent labeling [12] [%]
O=C(CCS)N(Cc1ccccc1)Cc1ccccc1,,16.8,23.1,14.5,27.4,23.3,38.2,,23,20.1,16.1,39.3
Cn1c(=O)n(C)c2cc(N3CCCCC3)c(NC(=O)CCS)cc21,,7,27.9,17.2,6.2,20.1,36.2,,13.3,6.4,6.9,18.5
O=C(CCS)N(CCN1CCOCC1)c1ccccc1F,,16.1,43.3,33.6,32.3,44.2,29.9,,19.3,34.6,35.7,57.2
CC(C)CCc1cc(NC(=O)CCS)n[nH]1,,26,25.5,27.5,31.5,23.6,56.2,,27.6,29.8,27,41.4
Cc1cccn2cc(COc3ccccc3C(=O)NCCS)nc12,36.6,24.1,34.8,17.6,13.6,20.6,40.2,29.1,10.4,13.1,10.5,28.2
O=C(NCCS)c1cnc(-c2cnccn2)s1,15.6,11.6,16.5,16.5,16.7,8.4,39.6,28.5,11.1,11.1,10.4,24.9
CC1(C)C(=O)Nc2ccc(CNC(=O)CCS)cc21,,14.2,39,41.7,32.2,46.4,26.9,,27,29.5,30.7,51.3
O=C(CN1C(=O)CCOc2ccccc21)NCCS,34.4,15.5,35.7,28.4,55.4,38,25.9,37.2,31.2,37.3,36.4,51.7
O=C(CCS)N1CCC(Cn2cncn2)CC1,,12.2,23,39.9,30.1,31.8,14.6,,24.4,32.3,35.1,50.6
O=C(CCS)NCCc1cc(O)cc(F)c1,,16,36.8,42.4,29.1,40.6,43.1,,31,34.8,35.9,51.9
Cc1nnnn1C(Cc1ccc(F)cc1)C(=O)NCCS (centres undefined),54.8,29.7,37.1,36,33.4,41.4,47.5,46.5,37.2,37.8,34.4,45.9
CN(C)Cc1nc2ccc(NC(=O)CCS)cc2[nH]1,,14.3,29.1,39.6,32,38,31,,37.4,27.1,29.4,48.6
Cc1nc(C(F)(F)F)ccc1C(=O)NCCS,36.8,15,31.4,24.6,35,28.4,24.8,37.7,24.2,36.5,30.9,46.9
O=C(NCCS)c1ccn(C2CCOCC2)n1,25.7,18.3,39.3,26.5,33.2,37.3,39,43.2,24.2,30,34.7,53.2
O=C(NCCS)c1cccc(-n2[nH]c(=O)ccc2=O)c1,16.8,6.2,23.7,13.1,36.4,20.9,10.6,29.1,29.5,26.6,34,25
Cc1cccc2c(=O)n(CCC(=O)NCCS)cnc12,36.9,18.6,31.1,32.8,34.9,42.5,39.1,38.6,23.4,37,29.7,46.5
O=C(CCN1C(=O)COc2ccccc21)NCCS,31.8,7.9,25.5,23.5,29.7,31.3,14.2,28.7,19.3,32.2,23.6,42.6
CC(C)(C)OC(=O)N1CCC2(CCN(C(=O)CCS)CC2)CC1,,19.1,34.1,30.8,28.1,37.8,33.5,,25.4,25.5,25.4,51.8
CN(C)C(C(=O)NCCS)c1ccccc1 (centres undefined),50.2,19.1,40.1,28.7,57.8,39.9,26,40.1,31.4,34.8,32.8,61.5
O=C(NCCS)c1cc(C2CCOCC2)[nH]n1,32.5,20.9,36.9,27.8,47.5,34.1,46.2,45.2,31.2,30.9,35.5,50.1
CCOC(=O)c1[nH]ncc1C1CCCN(C(=O)CCS)C1 (centres undefined),,16.6,45.8,40.5,40,46.5,34.6,,28.1,30.4,30,66.4
O=C(CCS)Nc1ccccc1N1CC2CCC1C2 (centres undefined),,24.6,36.7,27.9,33,35.1,38,,17.8,32.3,22.3,45.7
CC(c1cc(Cl)ccc1Cl)n1nccc1NC(=O)CCS (centres undefined),,21.8,15.8,17.9,11,17,32.4,,12.1,14.1,9.5,30.4
